# Data taken from PubChem BioAssay AID330 (DTP/NCI, 2004).
# “And” between values parts separate entries of the source, which are not always exact repeats. Equal entries are not always repeated. Further values from the same series stand in other lists. Toxic doses and inconclusive results are not listed.
# Test system: P388 leukemia ip, CD2F1 mice, survival T/C
# Test: NCI In Vivo Anticancer Drug Screen. Data for tumor model P388 Leukemia (intraperitoneal) in CD2F1 (CDF1) mice
# Conditions: endpoint: median survival time, higher = longer survival
# Experimental: The antitumor activity of compounds was measured in mice bearing transplantable tumors. Survival or tumor size were measured and the results are expressed as the measurement made in the treated group (T) divided by the measurement made in the vehicle treated control group (C). The tumor model used in this assay is P388 Leukemia (intraperitoneal) in CD2F1 (CDF1) mice
compound,measurement,setting,value
COc1cccc2c1C(=O)c1c(O)c3c(c(O)c1C2=O)C[C@@](O)(C(=O)CO)C[C@@H]3OC1CC(N)C(O)C(C)O1 (stereo partly drawn),T/C,"dose: 3.0 mg/kg/injection, schedule: Q01DX005 (ip), vehicle: saline",175 % of control
same,T/C,"dose: 3.2 mg/kg/injection, schedule: Q01DX001 (ip), vehicle: water",201 % of control and 184 % of control
same,T/C,"dose: 3.2 mg/kg/injection, schedule: Q01DX004 (ip), vehicle: saline",181 % of control and 207 % of control
same,T/C,"dose: 3.33 mg/kg/injection, schedule: Q01DX009 (ip), vehicle: saline",200 % of control and 175 % of control
same,T/C,"dose: 3.6 mg/kg/injection, schedule: Q04DX002 (ip), vehicle: saline",200 % of control
same,T/C,"dose: 3.6 mg/kg/injection, schedule: Q04DX002 (ip), vehicle: water",192 % of control
same,T/C,"dose: 3.6 mg/kg/injection, schedule: Q04DX003 (ip), vehicle: water",191 % of control
same,T/C,"dose: 4.0 mg/kg/injection, schedule: Q01DX005 (ip), vehicle: saline",187 % of control
same,T/C,"dose: 4.0 mg/kg/injection, schedule: Q01DX005 (ip), vehicle: water",215 % of control and 276 % of control
same,T/C,"dose: 4.0 mg/kg/injection, schedule: Q01DX005 (sc), vehicle: water",196 % of control
same,T/C,"dose: 4.0 mg/kg/injection, schedule: Q02DX002 (ip), vehicle: saline",198 % of control
same,T/C,"dose: 4.0 mg/kg/injection, schedule: Q03HX008 (ip), vehicle: saline",178 % of control
same,T/C,"dose: 4.0 mg/kg/injection, schedule: Q04DX002 (ip), vehicle: saline",214 % of control
same,T/C,"dose: 4.2 mg/kg/injection, schedule: Q01DX001 (ip), vehicle: water",187 % of control and 203 % of control
same,T/C,"dose: 4.32 mg/kg/injection, schedule: Q01DX001 (ip), vehicle: saline",182 % of control and 200 % of control
same,T/C,"dose: 4.5 mg/kg/injection, schedule: Q04DX002 (ip), vehicle: saline",188 % of control and 189 % of control and 208 % of control
same,T/C,"dose: 4.5 mg/kg/injection, schedule: Q04DX003 (ip), vehicle: water",200 % of control
same,T/C,"dose: 4.8 mg/kg/injection, schedule: Q04DX002 (ip), vehicle: saline",188 % of control and 217 % of control
same,T/C,"dose: 5.0 mg/kg/injection, schedule: Q01DX001 (ip), vehicle: water",155 % of control
same,T/C,"dose: 5.0 mg/kg/injection, schedule: Q01DX005 (ip), vehicle: saline",202 % of control
same,T/C,"dose: 5.0 mg/kg/injection, schedule: Q04DX003 (ip), vehicle: water",166 % of control
same,T/C,"dose: 5.6 mg/kg/injection, schedule: Q01DX001 (ip), vehicle: water",203 % of control and 233 % of control
same,T/C,"dose: 6.0 mg/kg/injection, schedule: Q04DX002 (ip), vehicle: saline",218 % of control and 240 % of control
same,T/C,"dose: 6.0 mg/kg/injection, schedule: Q04DX002 (ip), vehicle: water",188 % of control
same,T/C,"dose: 6.0 mg/kg/injection, schedule: Q04DX003 (ip), vehicle: water",169 % of control
same,T/C,"dose: 6.33 mg/kg/injection, schedule: Q01DX001 (ip), vehicle: saline",167 % of control and 172 % of control
same,T/C,"dose: 6.6 mg/kg/injection, schedule: Q01DX001 (ip), vehicle: saline",250 % of control
same,T/C,"dose: 6.7 mg/kg/injection, schedule: Q04DX003 (iv), vehicle: saline",191 % of control
same,T/C,"dose: 7.2 mg/kg/injection, schedule: Q01DX001 (ip), vehicle: saline",196 % of control and 356 % of control
same,T/C,"dose: 7.5 mg/kg/injection, schedule: Q01DX001 (ip), vehicle: saline",166 % of control
same,T/C,"dose: 7.5 mg/kg/injection, schedule: Q01DX001 (ip), vehicle: water",203 % of control and 233 % of control
same,T/C,"dose: 7.5 mg/kg/injection, schedule: Q04DX002 (ip), vehicle: saline",208 % of control and 219 % of control and 225 % of control
same,T/C,"dose: 7.5 mg/kg/injection, schedule: Q04DX003 (ip), vehicle: water",230 % of control
same,T/C,"dose: 8.0 mg/kg/injection, schedule: Q01DX001 (ip), vehicle: DMSO",191 % of control
same,T/C,"dose: 8.0 mg/kg/injection, schedule: Q01DX001 (ip), vehicle: other",183 % of control
same,T/C,"dose: 8.0 mg/kg/injection, schedule: Q01DX005 (sc), vehicle: water",86 % of control
same,T/C,"dose: 8.0 mg/kg/injection, schedule: Q02DX002 (ip), vehicle: saline",235 % of control
same,T/C,"dose: 8.0 mg/kg/injection, schedule: Q04DX002 (ip), vehicle: saline",225 % of control
same,T/C,"dose: 8.0 mg/kg/injection, schedule: Q04DX003 (ip), vehicle: saline",154 % of control
same,T/C,"dose: 8.0 mg/kg/injection, schedule: Q04DX003 (iv), vehicle: saline",184 % of control
same,T/C,"dose: 8.44 mg/kg/injection, schedule: Q01DX001 (ip), vehicle: saline",180 % of control
same,T/C,"dose: 9.0 mg/kg/injection, schedule: Q04DX002 (ip), vehicle: saline",269 % of control
same,T/C,"dose: 10.0 mg/kg/injection, schedule: Q01DX001 (ip), vehicle: water",223 % of control and 225 % of control
same,T/C,"dose: 10.0 mg/kg/injection, schedule: Q04DX002 (ip), vehicle: saline",93 % of control
same,T/C,"dose: 10.0 mg/kg/injection, schedule: Q04DX002 (ip), vehicle: water",291 % of control
same,T/C,"dose: 10.0 mg/kg/injection, schedule: Q04DX003 (ip), vehicle: water",150 % of control and 155 % of control
same,T/C,"dose: 10.0 mg/kg/injection, schedule: Q04DX003 (iv), vehicle: saline",214 % of control
same,T/C,"dose: 11.25 mg/kg/injection, schedule: Q01DX001 (ip), vehicle: saline",193 % of control and 202 % of control
same,T/C,"dose: 12.0 mg/kg/injection, schedule: Q01DX001 (ip), vehicle: saline",254 % of control and 279 % of control and 356 % of control
same,T/C,"dose: 13.3 mg/kg/injection, schedule: Q01DX001 (ip), vehicle: saline",204 % of control
same,T/C,"dose: 15.0 mg/kg/injection, schedule: Q01DX001 (iv), vehicle: saline",208 % of control
same,T/C,"dose: 16.0 mg/kg/injection, schedule: Q01DX001 (ip), vehicle: DMSO",215 % of control
same,T/C,"dose: 16.0 mg/kg/injection, schedule: Q01DX001 (ip), vehicle: Klucel (hydroxypropylcellulose) (HPC)",166 % of control
same,T/C,"dose: 16.0 mg/kg/injection, schedule: Q01DX001 (iv), vehicle: saline",229 % of control
same,T/C,"dose: 16.0 mg/kg/injection, schedule: Q02DX002 (ip), vehicle: saline",78 % of control
same,T/C,"dose: 16.0 mg/kg/injection, schedule: Q04DX003 (ip), vehicle: saline",166 % of control and 172 % of control
same,T/C,"dose: 17.5 mg/kg/injection, schedule: Q01DX001 (ip), vehicle: saline",196 % of control and 198 % of control
same,T/C,"dose: 20.0 mg/kg/injection, schedule: Q01DX001 (iv), vehicle: saline",219 % of control
same,T/C,"dose: 20.0 mg/kg/injection, schedule: Q04DX003 (ip), vehicle: water",163 % of control
same,T/C,"dose: 26.67 mg/kg/injection, schedule: Q01DX001 (ip), vehicle: saline",58 % of control
same,T/C,"dose: 26.67 mg/kg/injection, schedule: Q01DX001 (iv), vehicle: saline",203 % of control
same,T/C,"dose: 30.0 mg/kg/injection, schedule: Q01DX001 (ip), vehicle: saline",83 % of control
same,T/C,"dose: 40.0 mg/kg/injection, schedule: Q01DX001 (ip), vehicle: saline",84 % of control
same,T/C,"dose: 55.6 mg/kg/injection, schedule: Q01DX001 (oral), vehicle: saline",97 % of control
same,T/C,"dose: 64.0 mg/kg/injection, schedule: Q01DX001 (ip), vehicle: saline",58 % of control
same,T/C,"dose: 64.0 mg/kg/injection, schedule: Q04DX003 (ip), vehicle: saline",100 % of control
same,T/C,"dose: 92.6 mg/kg/injection, schedule: Q01DX001 (oral), vehicle: saline",95 % of control
same,T/C,"dose: 128.0 mg/kg/injection, schedule: Q01DX001 (ip), vehicle: saline",42 % of control
